This is an account of results in a collection of fitness landscapes (doi:10.1016/j.celrep.2020.107928).

First the molecules themselves.
B1: Caulobacter ParB omega fusion; a variant is named by its letters at X, in order, B8GW30 (parent)
chain: MESVVVGEPGMSEGRRGLGRGLSALLGEVDAAPAQAPGEQLGGSREAPIEILQRNPDQPRRTFREEDLEDLSNSIREKGVLQPILVRPSPDTAGEYQIVAGERAWRAAQRAGLKTVPIMVRELDDLAVLEIGIIENVQRADLNVLEEALSYKVLMEKFERTQENIAQTIGKSXSHVANXMRLLXLPDEVQSYLVSGELTAXHARAIAAAADPVALAKQIIEGGLSVRETEALARKAPNLSAGKSKGGRPPRVKDTDTQALESDLSSVLGLDVSIDHRGSTGTLTITYATLEQLDDLCNRLTRGI

The full ranking holds about 81,000 sequences; the median of “one-hybrid fitness for binding NBS DNA” is about -0.1, and the highest 2% start at about 0.36. This is one part of the list.

The experiment covers variants of B1. As to the kind of experiment: one-hybrid fitness for binding NBS DNA (the Noc-binding site; scaled: cognate 1, non-cognate 0); higher = stronger binding. The conditions noted are these: with NBS DNA site. Summed up:
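Fitness here means the log change in variant-to-wild-type read ratio between plasmids sequenced before and after selection. That scale was set so cognate equals 1 and non-cognate equals 0. The selection was a bacterial one-hybrid screen of Caulobacter ParB libraries, four specificity codons randomised, in E. coli USO carrying a HIS3 reporter with the site 19 bp from the promoter, grown 48 hours at 37°C on M9-minus-histidine with 0.1 mM IPTG and 5 mM 3-AT.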
As to RARM, the “one-hybrid fitness for binding NBS DNA” value is at most 0.2.

For the variant LQIS, the “one-hybrid fitness for binding NBS DNA” value is at most 0.2. In the case of DKHR it was at most 0.2. The figure for VPDF is at most 0.2. Consider SLTF, for which the “one-hybrid fitness for binding NBS DNA” value was at most 0.2.

As to GECG, the “one-hybrid fitness for binding NBS DNA” value was at most 0.2. In the case of QWSN it was at most 0.2; in that of RTEA, at most 0.2; in that of ADFD, at most 0.2. The figure for RIPE is at most 0.2; for VVVT it is at most 0.2; for KTWN it is at most 0.2.

For WRWG, the “one-hybrid fitness for binding NBS DNA” value was at most 0.2.

For the variant TFHY, the “one-hybrid fitness for binding NBS DNA” value was at most 0.2. The figure for MATY is at most 0.2. In the case of GNCS it was at most 0.2; in that of STGL, at most 0.2. In the case of YKRQ it was at most 0.2; in that of PPSC, at most 0.2. With RTYS, the “one-hybrid fitness for binding NBS DNA” value stood at 0.491.

With GCPT, the “one-hybrid fitness for binding NBS DNA” value is at most 0.2.

As to CRDR, the “one-hybrid fitness for binding NBS DNA” value was at most 0.2. In the case of RSAF it was at most 0.2; in that of AMAM, at most 0.2. The figure for IWGT is at most 0.2; for REIS it is at most 0.2; for CYHP it is at most 0.2. In the case of VSVN it was at most 0.2.

Regarding ACEA, the “one-hybrid fitness for binding NBS DNA” value was at most 0.2. The figure for AYQT is at most 0.2. Regarding TVSW, the “one-hybrid fitness for binding NBS DNA” value is at most 0.2. Turning to QQDM, the “one-hybrid fitness for binding NBS DNA” value was at most 0.2. Regarding TWCL, the “one-hybrid fitness for binding NBS DNA” value is at most 0.2. In the case of VNLV it was at most 0.2; in that of NVTC, at most 0.2. In the case of AIHG it was at most 0.2; in that of RKMS, 0.586. The figure for HSSM is at most 0.2; for SPYR it is at most 0.2; for PLMH it is at most 0.2. For the variant PMVF, the “one-hybrid fitness for binding NBS DNA” value is at most 0.2. The figure for VGTH is at most 0.2. In the case of NHTS, the “one-hybrid fitness for binding NBS DNA” value is at most 0.2. The figure for VPRE is at most 0.2. As for QAMD, the “one-hybrid fitness for binding NBS DNA” value was at most 0.2. The figure for MTTR is at most 0.2; for HPDP it is at most 0.2; for DKQR it is at most 0.2. The figure for HSTV is at most 0.2.

As for RYFY, the “one-hybrid fitness for binding NBS DNA” value was at most 0.2. Regarding RLDA, the “one-hybrid fitness for binding NBS DNA” value was at most 0.2.

Take HGKW: the “one-hybrid fitness for binding NBS DNA” value is at most 0.2. The figure for IQYG is at most 0.2; for NSHA it is at most 0.2. The figure for PEAY is at most 0.2; for NRTW it is at most 0.2; for QLIY it is at most 0.2.

With TVDG, the “one-hybrid fitness for binding NBS DNA” value is at most 0.2. In the case of GCFC it was at most 0.2; in that of FTNP, at most 0.2; in that of EVWR, at most 0.2. The figure for QYTV is at most 0.2; for EKLD it is at most 0.2; for QGTG it is at most 0.2.

Consider TKAS, for which the “one-hybrid fitness for binding NBS DNA” value was at most 0.2. The figure for CFQR is at most 0.2; for RIEF it is at most 0.2. The figure for EPRQ is at most 0.2; for MEGT it is at most 0.2. In the case of KALR it was at most 0.2; in that of AFRL, at most 0.2; in that of PWGS, at most 0.2. As to PGKR, the “one-hybrid fitness for binding NBS DNA” value was at most 0.2. In the case of GLAP it was at most 0.2.

Take RRNY: the “one-hybrid fitness for binding NBS DNA” value is 0.589. For NEAR, the “one-hybrid fitness for binding NBS DNA” value was at most 0.2. In the case of GVKG it was at most 0.2.
